# Data reported in article PMC4336329 (PLoS ONE, 2015).
# The campaign covered roughly 310,000 compounds. About 14,000 (4.5%) showed an effect of 50% or more. The effect is printed as a negative number. This is one part of the list.
# Target: human ether-à-go-go-related gene (hERG) potassium channel (human, UniProt Q12809)
# Experiment: primary screen, population patch clamp on CHO cells stably expressing hERG
# 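Note: peak tail current of the secondary pulse compared with the same well before compound.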
# Sequence of human ether-à-go-go-related gene (hERG) potassium channel (Q12809 whole entry, looked up): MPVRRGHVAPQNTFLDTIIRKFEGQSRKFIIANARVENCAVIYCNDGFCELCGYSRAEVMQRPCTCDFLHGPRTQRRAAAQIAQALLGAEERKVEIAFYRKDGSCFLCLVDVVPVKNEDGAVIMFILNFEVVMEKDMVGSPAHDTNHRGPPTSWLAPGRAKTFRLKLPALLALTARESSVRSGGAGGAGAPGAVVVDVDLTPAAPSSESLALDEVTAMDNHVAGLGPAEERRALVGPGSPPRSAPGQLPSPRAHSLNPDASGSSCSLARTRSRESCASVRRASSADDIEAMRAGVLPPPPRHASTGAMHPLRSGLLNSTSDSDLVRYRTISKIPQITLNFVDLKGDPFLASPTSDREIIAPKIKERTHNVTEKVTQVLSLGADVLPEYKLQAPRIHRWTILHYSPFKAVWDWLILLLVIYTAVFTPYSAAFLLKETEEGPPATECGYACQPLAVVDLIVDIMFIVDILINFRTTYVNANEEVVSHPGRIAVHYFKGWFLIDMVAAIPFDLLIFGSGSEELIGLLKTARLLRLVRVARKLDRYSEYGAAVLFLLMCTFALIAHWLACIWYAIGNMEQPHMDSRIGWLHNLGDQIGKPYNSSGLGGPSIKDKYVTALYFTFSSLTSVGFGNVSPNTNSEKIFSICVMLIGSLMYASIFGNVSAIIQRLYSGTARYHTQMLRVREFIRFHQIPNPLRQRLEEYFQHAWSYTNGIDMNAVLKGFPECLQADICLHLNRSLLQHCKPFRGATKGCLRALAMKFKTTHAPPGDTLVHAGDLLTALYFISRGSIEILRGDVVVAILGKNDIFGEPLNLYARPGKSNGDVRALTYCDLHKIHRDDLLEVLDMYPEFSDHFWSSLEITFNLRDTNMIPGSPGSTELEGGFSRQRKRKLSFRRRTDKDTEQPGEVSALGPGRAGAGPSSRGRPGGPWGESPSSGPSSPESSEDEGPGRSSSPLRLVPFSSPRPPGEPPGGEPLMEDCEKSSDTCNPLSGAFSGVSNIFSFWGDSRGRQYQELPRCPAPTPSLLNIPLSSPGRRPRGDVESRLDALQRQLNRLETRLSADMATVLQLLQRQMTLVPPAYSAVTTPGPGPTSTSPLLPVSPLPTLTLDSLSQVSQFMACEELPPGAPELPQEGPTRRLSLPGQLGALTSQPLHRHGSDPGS
row,SMILES,"hERG current change (%, negative = inhibition) at 10uM [%]"
1,Br.Cc1cc(C)cc(Nc2nc(-c3ccc(S(=O)(=O)N4CCCC4)cc3)cs2)c1,19.5
2,CSCCCN1CCCC(CO)(Cc2ccc(F)cc2)C1 (stereo not shown),-30.1
3,O=C(COC(=O)/C=C/c1ccc(F)cc1)NCc1cccs1,8.26
4,Cc1c(C(=O)Nn2cnnc2)oc2ccccc12,-4.79
5,CCN(CC)CCNC(=O)CCn1c(=S)[nH]c2cc3c(cc2c1=O)OCO3,-0.98
6,CC(C)Cc1cc(C(=O)NCCCN2CCOCC2)no1,-6.67
7,Cc1ccc(C(=O)OCC(=O)Nc2cc(S(=O)(=O)N3CCOCC3)ccc2C)cc1,-20.1
8,CCn1cc(C(=O)NCCCN(C)c2ccccc2)c(=O)c2cc(S(=O)(=O)N(C)C)ccc21,-19.5
9,c1ccc(C2=Nc3ccccc3SC2c2nc3ccccc3[nH]2)cc1 (stereo not shown),-33.3
10,CCN(CC)C(=O)Cn1cc(C(=O)C(=O)N2CCN(Cc3ccc4c(c3)OCO4)CC2)c2ccccc21,-2.05
11,Cc1cc(C(=O)O)ccc1N/C=C1\CCCC(C)C1=O (stereo not shown),-0.227
12,CN(C)C(=O)Oc1ccc(Br)cc1C(=O)Nc1ccc(F)c(Cl)c1,-17.8
13,O=c1c(F)cn(C2CCCO2)c(=O)n1Cc1ccc(Cl)cc1 (stereo not shown),-26.8
14,Cc1cc(NC(C)C)n2c(nc3ccccc32)c1C#N,25.6
15,O=C(Nc1ccc(F)cc1F)c1cccc(S(=O)(=O)N2CCCCC2)c1,-9.6
16,COc1ccc(C(=O)N2CCn3c(C)ccc3C2C)cc1 (stereo not shown),8.7
17,COc1ccc(C2SCC(=O)Nc3c2c(C)nn3C2CCOC(C)(C)C2)cc1 (stereo not shown),6.75
18,CN(C)c1cccc(NC(=O)c2ccco2)c1,-73.3
19,O=C(Cn1nc(C(F)F)cc1C(F)F)NNC(=S)Nc1ccc(Cl)cc1,15.5
20,CC(=O)c1ccc(NC(=O)CSc2ccc3nnc(-c4ccccn4)n3n2)cc1,-64.7
21,Cc1c(/C=N\NC(=O)c2cc3ccccc3o2)c2ccccc2n1C,-5.62
22,Cc1ccc(-c2nnc(Nc3ccc(O)cc3)c3ccccc23)cc1S(=O)(=O)NCCO,8.79

row,SMILES,"hERG current change (%, negative = inhibition) at 10uM [%]"
1,CCOc1cc(C(=O)OCC(=O)c2c(C)[nH]c3ccccc23)ccc1OCC(=O)N1CCOCC1,2.82
2,COc1ccc(Cl)cc1NC(=O)C1CC(c2ccccc2O)=NO1 (stereo not shown),9.15
3,CCOc1cccc(C(=O)NNC(=O)C2C3C=CC(C3)C2C(=O)O)c1 (stereo not shown),16.6
4,CCOCCCNCc1ccc(OCC(=O)N2CCOCC2)c(OC)c1.Cl,4.74
5,COc1ccc(N(CC(=O)Nc2ccc(C)cn2)S(=O)(=O)c2c(C)noc2C)cc1,-24.8
6,O=C1O/C(=C/c2ccccc2)c2ccccc21,-3.12
7,O=C(CCC(=O)N1CCOc2ccc(Cl)cc21)NCCCN1CCN(c2ccccc2F)CC1,-66.5
8,Cc1nc(NC(=O)c2cccnc2)ccc1Br,-13.3
9,CCN(c1ccccc1)S(=O)(=O)c1cc(C(=O)Nc2ccccc2Cl)ccc1F,8
10,CCN(CC)c1ccc(NC(=O)COC(=O)CSc2ccc(Br)cc2C)cc1.O=S(=O)(O)O,-0.119
11,N#Cc1ccccc1OCC(=O)N1N=C(c2cccs2)CC1c1ccco1 (stereo not shown),-6.54
12,C=CCn1c(-c2ccc3ncccc3c2)n[nH]c1=S,19.6
13,CN1CCN(c2ncc(C=O)s2)CC1,10.5
14,Cc1cccc(NC(=S)NC(=O)CC2CC(C)(C)OC2=O)c1 (stereo not shown),4.55
15,Cc1cc(C)nc(N2CCC(C(=O)NCc3cccc(C(F)(F)F)c3)CC2)n1,7.21
16,COc1ccc(-c2cc(C(=O)NC3CC3)c3ccccc3n2)cc1,-64.5
17,COc1ccc(N2C(=O)CC(Sc3nc4ccccc4s3)C2=O)cc1OC (stereo not shown),12.2
18,CCOC(=O)C1=C(N)Oc2cc(C)oc(=O)c2C1c1cccnc1 (stereo not shown),13.5
19,Cc1nnc(SCc2c(Cl)cccc2Cl)n(N)c1=O,-34.9
20,CCN1CCN(CCNC(=O)C2CCCN(Cc3nc(-c4cccc(Cl)c4)oc3C)C2)CC1 (stereo not shown),-6.73
21,CCOC(=O)C1=C(C)N(C)C(C)=C(C(=O)OCC)C1c1ccc(Cl)cc1,-17.9
22,CCN1CCN(CCOc2ccc(Cl)cc2)CC1.O=C(O)C(=O)O,-34.3

row,SMILES,"hERG current change (%, negative = inhibition) at 10uM [%]"
1,COc1ccccc1C(=O)NCCCNC(=O)c1cnccn1,18.3
2,O=C(Nc1cccc(-n2cnnn2)c1)c1ccoc1COc1ccc(Cl)cc1,5.57
3,COc1ccc(N2CCN(C(=O)CSc3nnc(NC(=O)C4CCC4)s3)CC2)cc1,14
4,Nc1c2c(nc3sc4c(c13)CCCCC4)CCCC2,-48.3
5,CC(C)[C@H](NC(=O)NCc1ccco1)C(=O)O,10.9
6,Cc1cc(N2CCOCC2)c(F)cc1C(=O)c1ccccc1,-10.9
7,CC(C)C[C@@H](C(=O)NCC1CCCO1)N1C(=O)N2CCc3c([nH]c4ccccc34)[C@@]2(C)C1=O (stereo partly shown),-24.7
8,NC(=O)[C@H]1CC2(CC(c3cccc(NC(=O)[C@H]4CCC(=O)N4)c3)=NO2)CN1C(=O)c1ccccc1C(=O)c1ccccc1 (stereo partly shown),14.7
9,COc1ccc(C(=O)NCc2nnc(SCC(=O)c3ccc(F)cc3)n2C)cc1OC,-36.3
10,O=C(NC1CCCc2ccccc21)c1ccccc1Cl (stereo not shown),29.8
11,O=C(CSC1=NNC(c2ccccn2)S1)Nc1ccc(C(F)(F)F)cc1 (stereo not shown),18.2
12,O=C(N[C@@H](Cc1ccccc1)C(=O)N1CCN(S(=O)(=O)c2cccc(F)c2)CC1)c1ccco1,-25.2
13,CO/N=C(/CN1CCCCC1)c1ccc(Cl)cc1,8.9
14,CCOc1nc2ccccc2nc1NS(=O)(=O)c1ccc(Cl)cc1,-40.6
15,O=C(O)CC1C(=O)NCCN1Cc1cccs1 (stereo not shown),8.09
16,CS(=O)c1ccccc1O (stereo not shown),4.04
17,O=C(CC(NS(=O)(=O)c1ccc(Cl)cc1)c1ccco1)NC1CCCC1 (stereo not shown),-8
18,O=S(=O)(c1cc(O)ccc1O)c1cccc2c(S(=O)(=O)c3cc(O)ccc3O)cccc12,10.8
19,COc1ccc(Cl)cc1NC(=O)CN(C)C(=O)c1cc2ccccc2cc1O,6.92
20,CC(=O)Cn1c(CN2CCCC2)nc2ccccc2c1=O,17.2
21,Cc1ccc(C(=O)NCc2ccc(Cl)cc2)cc1S(=O)(=O)N1CCCCC1,-0.995
22,COC(=O)CCC(=O)OC1(C)C(=O)C2=CN(CCc3ccccn3)C(c3ccc(OC)cc3)=CC2=C(Br)C1=O (stereo not shown),-14.8

row,SMILES,"hERG current change (%, negative = inhibition) at 10uM [%]"
1,CC1CC2=C(NC(=S)NC2c2ccccc2F)/C(=C/c2ccccc2F)C1 (stereo not shown),25.8
2,Cc1ncsc1CCC(=O)N1CCCC(Nc2ccc(C(C)C)cc2)C1 (stereo not shown),6.96
3,O=C(CN1C(=O)COc2ccccc21)NCCCN1CCCC1,18.2
4,Cc1ccc(N(C)C(=O)Oc2cccc3cccnc23)cc1,3.78
5,COc1cccc(N2CC(C(=O)Nc3c(C(N)=O)oc4ccccc34)CC2=O)c1 (stereo not shown),-22.1
6,O=C(O)CCCC(=O)NS(=O)(=O)c1ccc(Cl)cc1,14
7,O=C(COc1ccccc1)N1CCN=C1SCc1ccccc1F,-8.1
8,Cc1ccc(Cn2nnc3c(=O)n(Cc4cccc(C)c4)cnc32)cc1,3.21
9,CCOC(=O)C(C)n1nc(C)c2sc3ccccc3c2c1=O (stereo not shown),-0.525
10,COc1cc(NC(=O)COC(=O)c2ccccc2SCC(=O)N2CCCC2)cc(OC)c1,-25.7
11,CN1CCN(c2ccc(CNC(=O)c3cc4ccccc4o3)cc2)CC1,-26.7
12,Cc1ccc(NCc2nc3ccccc3n2C)c(C)c1,-1.8
13,Cc1cc(=O)[nH]c(Nc2ccc(N(C)C)cc2)n1,19.1
14,Cc1ccc(NC(=O)c2ccc(CSc3nnc(C)s3)cc2)cc1,13
15,CCOc1ccc(C2C(C(=O)Nc3cc(C)on3)c3ccccc3C(=O)N2CCN2CCOCC2)cc1 (stereo not shown),8.34
16,Cc1ccccc1C(=O)NNC(=O)c1ccc(F)cc1,-0.456
17,O=C1CSc2ccc(C(=O)Nc3cccc(S(=O)(=O)Nc4ccc(Br)cc4)c3)cc2N1,15
18,Cc1ccc(NC(=O)c2ccsc2)cc1NS(C)(=O)=O,7.54
19,O=C1CC(c2ccc(F)cc2)Cc2nc(NCc3ccco3)ncc21 (stereo not shown),11.4
20,CCc1ccc2c(c1)C(c1ccc([N+](=O)[O-])cc1)=NNC(c1ccc(C)cc1)=N2,-0.901
21,O=C(CCC1CCCN(C(=O)c2cc(C3CC3)[nH]n2)C1)N1CCN(c2ccccn2)CC1 (stereo not shown),13.2
22,CC(C)CN(C(=O)c1ccc(Br)o1)C1CCS(=O)(=O)C1 (stereo not shown),-7.11
